Test results from the supplement of paper PMC4604168 (melanoma cell lines).
Some of the results follow. Repeats are few or missing, and single values can be far off.

Tested on: SkMel28
Assay: cell count relative to DMSO control; melanoma cells; higher = more viable cells
Conditions: library dose: low library concentration; 72 h
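Also: cell number obtained by counting DAPI-stained nuclei in high-throughput microscope images with image analysis software, screen run in 1,536-well plates.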

| SMILES | cell count |
| --- | --- |
| O=C(/C=C/c1cccnc1)NCCCCC1CCN(C(=O)c2ccccc2)CC1 + C#Cc1cccc(Nc2ncnc3cc(OCCOC)c(OCCOC)cc23)c1 [erlotinib] (first compound 0.01 µM, partner dose 0.8 µM) | 91.6% |
| CC1(C)CCC(c2ccc(Cl)cc2)=C(CN2CCN(c3ccc(C(=O)NS(=O)(=O)c4ccc(N[C@H](CCN5CCOCC5)CSc5ccccc5)c(S(=O)(=O)C(F)(F)F)c4)cc3)CC2)C1 + Cn1cnc2c(F)c(Nc3ccc(Br)cc3Cl)c(C(=O)NOCCO)cc21 [selumetinib] (first compound 0.4 µM, partner dose 0.015 µM) | 96.8% |
| O=C(/C=C/c1cccnc1)NCCCCC1CCN(C(=O)c2ccccc2)CC1 + Cn1cnc2c(F)c(Nc3ccc(Br)cc3Cl)c(C(=O)NOCCO)cc21 [selumetinib] (first compound 0.01 µM, partner dose 0.015 µM) | 82.5% |
| Cc1ccc(Nc2nccc(N(C)c3ccc4c(C)n(C)nc4c3)n2)cc1S(N)(=O)=O [Pazopanib] + CC(C)CCN1c2nc(Nc3cc(F)c(O)c(F)c3)ncc2N(C)C(=O)C1C [BID1870] (first compound 0.4 µM, partner dose 0.2 µM) | 87% |
| CC1(C)CCC(c2ccc(Cl)cc2)=C(CN2CCN(c3ccc(C(=O)NS(=O)(=O)c4ccc(N[C@H](CCN5CCOCC5)CSc5ccccc5)c(S(=O)(=O)C(F)(F)F)c4)cc3)CC2)C1 + COc1ccc2c(c1)CCC1C2CCC2(C)C(NCCCCCCN3C(=O)C=CC3=O)CCC12 [U73122] (first compound 0.4 µM, partner dose 0.4 µM) | 84.3% |
| O=C(/C=C/c1cccnc1)NCCCCC1CCN(C(=O)c2ccccc2)CC1 + Cc1cn(-c2cc(NC(=O)c3ccc(C)c(Nc4nccc(-c5cccnc5)n4)c3)cc(C(F)(F)F)c2)cn1 [nilotinib] (first compound 0.01 µM, partner dose 0.2 µM) | 78.3% |
| Cc1ccc(Nc2nccc(N(C)c3ccc4c(C)n(C)nc4c3)n2)cc1S(N)(=O)=O [Pazopanib] + NC(=O)c1ccc(N(C(N)=O)c2c(F)cccc2F)nc1-c1ccc(F)cc1F [VX702] (first compound 0.4 µM, partner dose 0.4 µM) | 101% |
| Cc1ccc(Nc2nccc(N(C)c3ccc4c(C)n(C)nc4c3)n2)cc1S(N)(=O)=O [Pazopanib] + O=C(O)c1ccc(-c2c[nH]c3ncc(-c4ccccc4)cc23)cc1C1CCCC1 [GSK650394] (first compound 0.4 µM, partner dose 0.16 µM) | 84.2% |
| CC1(C)CCC(c2ccc(Cl)cc2)=C(CN2CCN(c3ccc(C(=O)NS(=O)(=O)c4ccc(N[C@H](CCN5CCOCC5)CSc5ccccc5)c(S(=O)(=O)C(F)(F)F)c4)cc3)CC2)C1 + Nc1nc(F)nc2c1ncn2[C@@H]1O[C@H](CO)[C@@H](O)[C@@H]1O [fludarabine] (first compound 0.4 µM, partner dose 0.2 µM) | 44.4% |
| Cc1ccc(Nc2nccc(N(C)c3ccc4c(C)n(C)nc4c3)n2)cc1S(N)(=O)=O [Pazopanib] + Cc1nc(Nc2ncc(C(=O)Nc3c(C)cccc3Cl)s2)cc(N2CCN(CCO)CC2)n1 [dasatanib] (first compound 0.4 µM, partner dose 0.004 µM) | 80.1% |
| CC1(C)CCC(c2ccc(Cl)cc2)=C(CN2CCN(c3ccc(C(=O)NS(=O)(=O)c4ccc(N[C@H](CCN5CCOCC5)CSc5ccccc5)c(S(=O)(=O)C(F)(F)F)c4)cc3)CC2)C1 + Cn1c(Nc2ccc(C(F)(F)F)cc2)nc2cc(Oc3ccnc(-c4ncc(C(F)(F)F)[nH]4)c3)ccc21 [CHIR265] (first compound 0.4 µM, partner dose 0.08 µM) | 45.6% |
| CC1(C)CCC(c2ccc(Cl)cc2)=C(CN2CCN(c3ccc(C(=O)NS(=O)(=O)c4ccc(N[C@H](CCN5CCOCC5)CSc5ccccc5)c(S(=O)(=O)C(F)(F)F)c4)cc3)CC2)C1 + C=C(c1ccc(C(=O)O)cc1)c1cc2c(cc1C)C(C)(C)CCC2(C)C [Bexarotene] (first compound 0.4 µM, partner dose 2 µM) | 80.7% |
| CC1(C)CCC(c2ccc(Cl)cc2)=C(CN2CCN(c3ccc(C(=O)NS(=O)(=O)c4ccc(N[C@H](CCN5CCOCC5)CSc5ccccc5)c(S(=O)(=O)C(F)(F)F)c4)cc3)CC2)C1 + Cc1cn(-c2cc(NC(=O)c3ccc(C)c(Nc4nccc(-c5cccnc5)n4)c3)cc(C(F)(F)F)c2)cn1 [nilotinib] (first compound 0.4 µM, partner dose 0.2 µM) | 99.8% |
| Cc1ccc(Nc2nccc(N(C)c3ccc4c(C)n(C)nc4c3)n2)cc1S(N)(=O)=O [Pazopanib] + CO[C@H]1C[C@@H]2CC[C@@H](C)[C@@](O)(O2)C(=O)C(=O)N2CCCC[C@H]2C(=O)O[C@H]([C@H](C)C[C@@H]2CC[C@@H](OCCO)[C@H](OC)C2)CC(=O)[C@H](C)/C=C(\C)[C@@H](O)[C@@H](OC)C(=O)[C@H](C)C[C@H](C)/C=C/C=C/C=C/1C [everolimus] (first compound 0.4 µM, partner dose 0.02 µM) | 54.1% |
| Cc1ccc(Nc2nccc(N(C)c3ccc4c(C)n(C)nc4c3)n2)cc1S(N)(=O)=O [Pazopanib] + Cn1nnc2c(C(N)=O)ncn2c1=O [temozolomide] (first compound 0.4 µM, partner dose 2 µM) | 91.1% |
| CC1(C)CCC(c2ccc(Cl)cc2)=C(CN2CCN(c3ccc(C(=O)NS(=O)(=O)c4ccc(N[C@H](CCN5CCOCC5)CSc5ccccc5)c(S(=O)(=O)C(F)(F)F)c4)cc3)CC2)C1 + COc1ccc(C2=N[C@@H](c3ccc(Cl)cc3)[C@@H](c3ccc(Cl)cc3)N2C(=O)N2CCNC(=O)C2)c(OC(C)C)c1 [Nutlin-3] (first compound 0.4 µM, partner dose 0.1 µM) | 83.9% |
| Cc1ccc(Nc2nccc(N(C)c3ccc4c(C)n(C)nc4c3)n2)cc1S(N)(=O)=O [Pazopanib] + CNC(=O)c1cc(Oc2ccc(NC(=O)Nc3ccc(Cl)c(C(F)(F)F)c3)cc2)ccn1 [sorafenib] (first compound 0.4 µM, partner dose 0.4 µM) | 75.8% |
| CC1(C)CCC(c2ccc(Cl)cc2)=C(CN2CCN(c3ccc(C(=O)NS(=O)(=O)c4ccc(N[C@H](CCN5CCOCC5)CSc5ccccc5)c(S(=O)(=O)C(F)(F)F)c4)cc3)CC2)C1 + C=CCNC1=C2C[C@@H](C)C[C@H](OC)[C@H](O)[C@@H](C)/C=C(\C)[C@H](OC(N)=O)[C@@H](OC)/C=C\C=C(/C)C(=O)NC(=CC1=O)C2=O [Tanespimycin] (first compound 0.4 µM, partner dose 0.002 µM) | 117% |
| O=C(/C=C/c1cccnc1)NCCCCC1CCN(C(=O)c2ccccc2)CC1 + NCC(=O)Nc1ccc(-n2nc(C(F)(F)F)cc2-c2ccc3c(ccc4ccccc43)c2)cc1 [OSU03012] (first compound 0.01 µM, partner dose 1 µM) | 90.6% |
| CC1(C)CCC(c2ccc(Cl)cc2)=C(CN2CCN(c3ccc(C(=O)NS(=O)(=O)c4ccc(N[C@H](CCN5CCOCC5)CSc5ccccc5)c(S(=O)(=O)C(F)(F)F)c4)cc3)CC2)C1 + CCCS(=O)(=O)Nc1ccc(F)c(C(=O)c2c[nH]c3ncc(Cl)cc23)c1F [PLX4720] (first compound 0.4 µM, partner dose 0.08 µM) | 69.6% |
| CC1(C)CCC(c2ccc(Cl)cc2)=C(CN2CCN(c3ccc(C(=O)NS(=O)(=O)c4ccc(N[C@H](CCN5CCOCC5)CSc5ccccc5)c(S(=O)(=O)C(F)(F)F)c4)cc3)CC2)C1 + Nc1cccc2c1CN(C1CCC(=O)NC1=O)C2=O [lenalidomide] (first compound 0.4 µM, partner dose 1 µM) | 99.5% |
| Cc1ccc(Nc2nccc(N(C)c3ccc4c(C)n(C)nc4c3)n2)cc1S(N)(=O)=O [Pazopanib] + C=CCn1c(=O)c2cnc(Nc3ccc(N4CCN(C)CC4)cc3)nc2n1-c1cccc(C(C)(C)O)n1 [MK1775] (first compound 0.4 µM, partner dose 0.02 µM) | 94.2% |
| O=C(/C=C/c1cccnc1)NCCCCC1CCN(C(=O)c2ccccc2)CC1 + Nc1nc(F)nc2c1ncn2[C@@H]1O[C@H](CO)[C@@H](O)[C@@H]1O [fludarabine] (first compound 0.01 µM, partner dose 0.2 µM) | 98.8% |
| CC1(C)CCC(c2ccc(Cl)cc2)=C(CN2CCN(c3ccc(C(=O)NS(=O)(=O)c4ccc(N[C@H](CCN5CCOCC5)CSc5ccccc5)c(S(=O)(=O)C(F)(F)F)c4)cc3)CC2)C1 + CS(=O)(=O)CCNCc1ccc(-c2ccc3ncnc(Nc4ccc(OCc5cccc(F)c5)c(Cl)c4)c3c2)o1 [lapatinib] (first compound 0.4 µM, partner dose 0.8 µM) | 92% |
| Cc1ccc(Nc2nccc(N(C)c3ccc4c(C)n(C)nc4c3)n2)cc1S(N)(=O)=O [Pazopanib] + Nc1cccc2c1CN(C1CCC(=O)NC1=O)C2=O [lenalidomide] (first compound 0.4 µM, partner dose 1 µM) | 104% |
| Cc1ccc(Nc2nccc(N(C)c3ccc4c(C)n(C)nc4c3)n2)cc1S(N)(=O)=O [Pazopanib] + COC(=O)c1sccc1S(=O)(=O)Nc1ccc(Nc2ccccc2)cc1OC [GSK0660] (first compound 0.4 µM, partner dose 1 µM) | 77% |
